172 sequences from publication PMC10668032 can be followed below.

The other results are listed elsewhere or left out. At the low end of the ranking, values are background and their order means little.

The experiment has as its target SIX1 homeodomain (reference allele) (UniProt Q15475). Nature of the experiment: universal protein binding microarray. The conditions noted are these: Universal all-10-mer PBM (8x60K, AMADID 030236), 300 nM GST-tagged protein, Alexa Fluor 488 anti-GST; buffer, salt, pH and temperature not stated; high values mean tight binding; most listed sequences are background and not binding sites; double strand, one strand shown.
Regarding CGGTCTCA, the binding signal turned out to be 0.197 E-score. Take ACTGGCGA: the binding signal was -0.151 E-score.

Turning to CCAGTGTC, the binding signal stood at 0.115 E-score. As for CAATTCCG, the binding signal was -0.0302 E-score. In the case of CGCCTTGC, the binding signal was -0.146 E-score. For GGTACTTA, the binding signal was determined as 0.00543 E-score. On to CGATATCC, for which the binding signal worked out at 0.476 E-score. For the sequence CATAACGC, the binding signal is -0.0736 E-score. As for GACTCTTA, the binding signal is -0.154 E-score. As for GTCGTGGA, the binding signal is -0.135 E-score. As to ACGATTTC, the binding signal was -0.105 E-score. CACCGTTC: the binding signal is 0.111 E-score. Consider CCCAAACG, for which the binding signal is -0.0457 E-score. As for CGGAATCC, the binding signal is 0.116 E-score. For ACCACTCC, the binding signal is -0.00203 E-score. As to CACTGCGG, the binding signal turned out to be 0.0121 E-score. The result for CGTGTGTC reads -0.144 E-score; that for CAGTACAA, -0.0185 E-score. On to ATAGAAAG, for which the binding signal was 0.0623 E-score.

On to CATTCTAG, for which the binding signal was -0.0986 E-score.

AGTAATTA: the binding signal is -0.096 E-score. The result for ATTAACGG reads -0.00752 E-score; that for TAGTGTCA, 0.245 E-score. Take AAAGGAGA: the binding signal came to 0.0556 E-score. As to CGGGAAGC, the binding signal was -0.107 E-score. Regarding CCGAAACA, the binding signal was -0.0822 E-score. The result for CCAAGCAC reads 0.077 E-score. With CGCATACC, the binding signal came to 0.266 E-score. As to CTCTGGGA, the binding signal was -0.0777 E-score. The result for AGCCCATA reads 0.0811 E-score. In the case of CTCTGCAA, the binding signal is -0.00306 E-score. For ACCTCGAT, the binding signal stood at 0.233 E-score. Take AGTGTAAA: the binding signal was -0.188 E-score. Turning to AGGAAGAA, the binding signal was -0.263 E-score. As for CGAAATCC, the binding signal amounted to 0.07 E-score. AGCAGATC: the binding signal came out at 0.286 E-score.

GGATAAAC: the binding signal stood at 0.294 E-score.

As for AAAGCGGC, the binding signal is -0.146 E-score. In the case of CCTCCGCA, the binding signal is -0.115 E-score. Regarding GTCGCGAA, the binding signal was 0.0741 E-score. For AGTATGAC, the binding signal amounted to 0.0709 E-score.

On to GTCGTAAA, for which the binding signal is -0.112 E-score. Next, ATTAACGC: -0.133 E-score; TGGGTAAA: -0.109 E-score. With CGTTTGTA, the binding signal is -0.128 E-score. The result for CAAGAAAG reads -0.186 E-score. Turning to AAGTGCTA, the binding signal is -0.192 E-score. As for AGGACACA, the binding signal is -0.102 E-score. The result for AGGCCGTC reads -0.132 E-score; that for ACATACTC, 0.073 E-score.

As for GTGAACGA, the binding signal is -0.155 E-score. With AGAGCAAC, the binding signal is -0.273 E-score. Next, GCTTACCA: 0.0292 E-score. As to AGCCAGAT, the binding signal was 0.176 E-score. Next, AATGGGCT: -0.0623 E-score; CAATCACA: -0.0869 E-score; GCTATGAC: -0.166 E-score. In the case of AACTCGCG, the binding signal was -0.116 E-score. As to GAGAGTCC, the binding signal was -0.13 E-score.

Regarding CCCCTGAC, the binding signal was found to be 0.161 E-score. The result for CACTGGCG reads -0.107 E-score; that for AGAGCAAG, -0.0193 E-score.

As to CCTAGGGA, the binding signal amounted to 0.109 E-score. Next, TGTGGCAA: -0.225 E-score; ACCCTGGC: -0.00464 E-score; GACACAGA: -0.0207 E-score. For the sequence ACCATGGG, the binding signal was -0.0162 E-score. Turning to ATTCGGCC, the binding signal was -0.128 E-score.

Take CCGCTCGA: the binding signal stood at 0.0783 E-score. Next, TACTAATA: 0.17 E-score. As to ACTGTGTC, the binding signal is -0.159 E-score. Consider CACCCTGA, for which the binding signal came to 0.287 E-score. For CTCTGGGC, the binding signal is -0.162 E-score. Regarding ATAATTTG, the binding signal was determined as 0.124 E-score. The result for CTCCTCCA reads 0.147 E-score; that for GGTGAGAA, 0.162 E-score; that for ACCCTAAA, 0.0849 E-score. For CCCGTAAG, the binding signal amounted to 0.119 E-score. As for AAGCGGAA, the binding signal was -0.171 E-score. For AGCTCAGG, the binding signal is -0.102 E-score. Turning to ATATCCTA, the binding signal amounted to 0.415 E-score. As for AGACGTCG, the binding signal is 0.0141 E-score. Take AATAGGGA: the binding signal was 0.0533 E-score. Next, ACCCATGA: 0.0803 E-score; CATTATGG: -0.0746 E-score. As to ACGCGCGC, the binding signal was -0.177 E-score.

Take AGATAGAC: the binding signal amounted to 0.0724 E-score. For the sequence GTTATCGA, the binding signal worked out at 0.129 E-score.

CAGTTGTC: the binding signal is -0.118 E-score. Take ATTGCCCC: the binding signal amounted to 0.0985 E-score. Consider GCCGTTCC, for which the binding signal turned out to be 0.00558 E-score. AGGTGACT: the binding signal is -0.143 E-score.

For the sequence ACGAGACC, the binding signal was determined as 0.0931 E-score. For the sequence CTGTTGAA, the binding signal was -0.0561 E-score.

Turning to CTCTACAA, the binding signal is -0.125 E-score.

Turning to AATCATCT, the binding signal was 0.14 E-score. For ACCTTTCA, the binding signal was -0.154 E-score. Consider ATGCAGGG, for which the binding signal was -0.0123 E-score. Next, CCCAACTA: 0.0977 E-score. The result for AGAGAGTG reads -0.16 E-score; that for GGATCGCC, 0.342 E-score; that for AATGGACG, -0.214 E-score.

As to CTAGGTGA, the binding signal was -0.0774 E-score. In the case of ATTGACGC, the binding signal was -0.149 E-score.

Consider CACAGGGG, for which the binding signal came out at 0.0334 E-score. Next, GCGGACTA: -0.00571 E-score; AATGCGCC: -0.103 E-score; TGACTCCA: -0.0674 E-score. As to CTCCGGAA, the binding signal is -0.127 E-score. The result for CTGCAGGC reads -0.203 E-score; that for GATCTTCA, 0.274 E-score. As for CGACATGA, the binding signal is -0.00218 E-score. Next, AGCTGATA: 0.357 E-score; GGTAAGGA: -0.146 E-score. As to CGATACCG, the binding signal came out at 0.45 E-score.

For the sequence CACAGCTC, the binding signal is -0.178 E-score. On to CATTCAAA, for which the binding signal was -0.166 E-score. As for AAGGTTTG, the binding signal is -0.0832 E-score. Next, TACAACTA: 0.0301 E-score; ATATGAAT: 0.19 E-score. As for CAAGGAGC, the binding signal was -0.0849 E-score.

On to TAGTATGA, for which the binding signal was 0.132 E-score. With CTCACAGC, the binding signal was -0.0597 E-score. For the sequence CCGAAGGA, the binding signal is -0.055 E-score. Turning to ACTTTAAT, the binding signal is -0.03 E-score. On to CCCGGGTA, for which the binding signal stood at 0.228 E-score. For GAAGGGGA, the binding signal was -0.0455 E-score. Regarding ACGTGTTA, the binding signal was -0.0702 E-score. For the sequence GGCGCCGA, the binding signal is -0.215 E-score. As for ATCCACGC, the binding signal is 0.114 E-score. As for CAGTCCAA, the binding signal was -0.111 E-score. As to GAGGAAGA, the binding signal was found to be 0.0544 E-score. ATAGCAAT: the binding signal turned out to be 0.182 E-score. The result for GCGCACAC reads -0.00943 E-score; that for CCTATAAC, 0.0784 E-score; that for CACAGAAC, -0.0647 E-score. Regarding ACCAGCTG, the binding signal is -0.0804 E-score. Next, AAGTGGAA: -0.00252 E-score.

Consider TAAGCTGA, for which the binding signal was -0.066 E-score. With GGTATCTA, the binding signal was found to be 0.426 E-score. Regarding ATGATCGG, the binding signal came out at 0.294 E-score. The result for ACTCGGCA reads -0.07 E-score. As to GCCGGCAC, the binding signal was -0.097 E-score. The result for AATTTGGG reads -0.197 E-score; that for GGGACCGA, -0.0812 E-score; that for CAGTGTGC, -0.274 E-score. Next, CGGCTCTA: 0.0423 E-score; ACTGACAT: -0.124 E-score. Next, AGACTCCT: -0.139 E-score. AATTCATG: the binding signal was -0.000625 E-score. With CCACACCG, the binding signal was determined as 0.151 E-score. On to GACCCAGC, for which the binding signal is -0.0994 E-score. On to ATAGCGTA, for which the binding signal was 0.0667 E-score.

For ACCCCATG, the binding signal stood at 0.0561 E-score. For CATATGAC, the binding signal came out at 0.166 E-score. As to CCACTGTA, the binding signal was 0.147 E-score. On to CCAACCAC, for which the binding signal amounted to 0.0827 E-score.

On to CCCGGACC, for which the binding signal was -0.0763 E-score.

As to GGGAAAAC, the binding signal was -0.169 E-score. As for ACTACACT, the binding signal was found to be 0.139 E-score.

For CAACCCTA, the binding signal is -0.13 E-score.

GCGGCCTA: the binding signal was -0.214 E-score. Next, GCGCTTGA: 0.0251 E-score; GAAGCATC: -0.0605 E-score.

ATATTAAT: the binding signal came out at 0.303 E-score. With AAGTCTCC, the binding signal is -0.214 E-score.

Consider CGTACGAA, for which the binding signal was -0.119 E-score. As to CACAAGAC, the binding signal was -0.225 E-score.

Regarding TGATCCAA, the binding signal stood at 0.324 E-score. ACGAATCG: the binding signal was -0.0264 E-score. As for AAAATGTA, the binding signal was -0.0661 E-score. Regarding AATCGCTA, the binding signal is -0.0491 E-score.
